# Measurements from PubChem BioAssay AID686970 (National Center for Advancing Translational Sciences (NCATS), 2013).
# Out of some 360,000 compounds screened, about 6,000 (1.7%) were called active. The inconclusive results got no clear call from the source; some entries with a clear call stand among them for comparison. Calls come from the whole dose curve; as a rule, active = well fitted cell-killing curve with a large enough effect; inconclusive = small, poorly fitted or top-dose-only effect, or effect the other way; inactive = flat fitted curve, though single readings scatter. Potencies of inconclusive entries are left out as doubtful fits.
# Assay: qHTS for induction of synthetic lethality in tumor cells producing 2HG: qHTS for the HT-1080-NT fibrosarcoma cell line;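 note: NT is the 2HG producing partner of a matched IDH1 knockdown line; nearly all actives have a fitted effect of over 55% in size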;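 for activity, negative = less viability: 0% = DMSO-treated cells and -100% = media-only wells without cells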
# Conditions: HT-1080-NT fibrosarcoma viability, CellTiter-Glo ATP luminescence, 48 h; activity, negative = less viability: at 46.1 µM (top of the series) unless noted
# Procedure, shortened: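 Luminescent CellTiter-Glo readout after 48 hours of compound exposure at 37 degrees C defined viability of HT-1080-NT cells. Activity was normalized to DMSO wells and cell-free media wells; concentration-response curves were fitted and assigned curve classes.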
# Potency is the fitted concentration of half-maximal effect; tags give direction and shape of the fitted curve.
SMILES,"activity, negative = less viability",Potency
COc1ccc(OC)c(NC(=O)NCc2cccnc2)c1,inactive: 1.3%,
CC(=O)c1cccc(NC(=O)CCS(=O)(=O)c2ccc(Br)s2)c1,inactive: 12.1%,
CCc1nc(N2CCCCC2C)c2oc3ccccc3c2n1 (centres undefined),,"inconclusive [cytotoxic, single point]"
COc1cc2c(cc1OC)C(COc1ccc([N+](=O)[O-])cc1)N(C(C)=O)CC2 (centres undefined),,"inconclusive [cytotoxic, partial curve]"
CC(C)(C)c1cc(NC(=O)Nc2ccc(Br)cc2Cl)no1,inactive: -19.8%,
COC(=O)CNC(=O)C(C)(C)Oc1ccc(Cl)cc1,,"inconclusive [rising, partial curve, poor fit]"
Nc1ccc(-c2nnnn2-c2ccc(N)cc2)cc1,inactive: 1.24%,
N#Cc1c(N)nc2c(c1-c1ccc3c(c1)OCO3)CCc1ccccc1-2,,"inconclusive [cytotoxic, single point]"
COc1ccc(CC(=O)Nc2nc(-c3ccncc3)cs2)cc1,inconclusive: 38%,
O=S(=O)(CCOc1ccccc1)c1nc2ccccc2[nH]1,,"inconclusive [cytotoxic, single point]"
COc1cccc(OCc2cc(C(=O)N3CCN(C)C(c4ccccc4)C3)no2)c1 (centres undefined),inactive: -3.33%,
O=[N+]([O-])c1ccc(N2CCN(Cc3ccc4c(c3)OCO4)CC2)nc1,,"inconclusive [cytotoxic, partial curve, poor fit]"
COc1ccc(-c2c(C)nn3c(N4CCC(C(=O)NCCN(C)C)CC4)cc(C)nc23)cc1OC,,"inconclusive [cytotoxic, single point]"
CCOC(=O)c1csc(-c2ccc(COC(=O)c3ccccc3)o2)n1,,"inconclusive [rising, full curve]"
CN(C)S(=O)(=O)c1cccc(NC(=O)CSc2nc3ccccc3n2-c2ccccc2)c1,inactive: -22.8%,
CCOC(=O)C(CC)(CC)C(=O)/C=C/c1cccc(Br)c1,,"inconclusive [cytotoxic, single point]"
COc1cc(/C=C/C(=O)c2c(O)cc(C)oc2=O)cc(OC)c1O,,"inconclusive [cytotoxic, single point]"
Cc1[nH]c2ccccc2c1SCc1nnc(SCc2ccc(Cl)cc2)n1C,,"inconclusive [cytotoxic, partial curve]"
Cc1ccc(S(=O)(=O)Nc2nc3ccccc3nc2NCc2ccco2)cc1,,"inconclusive [cytotoxic, single point]"
CCc1ccc(OCC2Cn3c(nc4c3c(=O)[nH]c(=O)n4C)O2)cc1 (centres undefined),inactive: -1.03%,
CC(=O)Nc1ccc(Oc2ccc3nc(C)[nH]c3c2)cc1,,"inconclusive [rising, partial curve, poor fit]"
CCc1nc2c(OCC(=O)c3ccc(Cl)cc3Cl)cccn2c1N(C=O)Cc1ccc(OC)cc1,inactive: -28.2%,
COCCSc1nnc(NC(=O)CSCc2ccccc2)s1,,"inconclusive [cytotoxic, single point]"
Cc1ccc(C2NC(=O)c3ccccc3N2)s1 (centres undefined),,"inconclusive [cytotoxic, single point]"
Cc1ccc(C2NC(=O)NC3=C2CCc2ccccc23)cc1 (centres undefined),inactive: -12.9%,

SMILES,"activity, negative = less viability",Potency
CN(C)Cc1csc(Nc2ccc(C(F)(F)F)cn2)n1,,"inconclusive [cytotoxic, single point]"
N#CCCn1cc(C(N)=O)c(-c2ccc3ccccc3c2)n1,inactive: 2.86%,
Cc1ccc2cc(CN(CC3CCCO3)C(=S)Nc3ccccc3)c(=O)[nH]c2c1 (centres undefined),,"inconclusive [cytotoxic, single point]"
C[C@@H]1CC=C[C@H]2[C@H]1C(=O)N(Cc1ccccc1)[C@H]2c1ccc(-c2ccoc2)cc1F,,"inconclusive [cytotoxic, single point]"
O=S(=O)(c1ccc(Cl)cc1)c1cnc2ccccc2n1,,"inconclusive [cytotoxic, single point]"
COc1cc(Cl)ccc1OC1(C)CCN(Cc2cccn2-c2nccs2)C1 (centres undefined),,"inconclusive [cytotoxic, single point]"
O=C(NCc1ccccc1)C1Cc2c(-c3ccc4c(c3)OCO4)ccnc2O1 (centres undefined),,"inconclusive [cytotoxic, full curve]"
O=C(NC1CCCCC1)C(c1ccc(C(F)(F)F)cc1)n1c(=O)c(-c2cc3ccccc3[nH]2)nc2ccccc21 (centres undefined),,"inconclusive [cytotoxic, single point]"
Cc1ccc(C2=NC3(CCCCC3)N=C2SCC(=O)Nc2ccc3c(c2)OCCO3)cc1,,"inconclusive [cytotoxic, single point]"
COc1ccc(-c2cc(C#N)nc(Cl)n2)cc1,,active: 7.31 µM
CCCCCCCCN1C(=O)[C@H](CC(=O)N2CCCCC2)C[C@@]2(C(=O)OC)CCCCC=C12,,"inconclusive [cytotoxic, single point]"
COc1ccc(/C=N/N2CCN(C3c4ccccc4-c4ccccc43)CC2)cc1O,inactive: -18.3%,
Cc1ccc(C(=O)Nc2ccc(C(=O)/C=C/c3cccs3)cc2)cc1,,"inconclusive [cytotoxic, single point]"
COc1ccc(C(CNC(=O)c2ccc(Cl)c(S(=O)(=O)N3CCCC3)c2)N2CCCC2)cc1 (centres undefined),inactive: -12.5%,
COc1ccc(NC(=O)NCCCCc2ccccc2)cc1,inactive: 1.8%,
CC1CCC(NC(=O)C2CC(=O)N(c3ccc(Cl)cc3)C2)CC1 (centres undefined),inactive: 0.975%,
O=C1Nc2ccccc2O/C1=C\c1c(F)cccc1Cl,,"inconclusive [cytotoxic, single point]"
CCOC(=O)N1CCN(C(=O)COc2cccc3c2CCN(Cc2ccccc2C)C3=O)CC1,inactive: -7.27%,
COC(=O)c1[nH]c2cc(OC)ccc2c1NC(=O)CCN1CCN(c2cccc(C)c2C)CC1,,"inconclusive [cytotoxic, single point]"
CCOC(=O)N1CCN(Cc2c(F)cccc2Cl)CC1,inconclusive: 30.8%,
N#CCN1CCN(CC(=O)c2ccc(Br)cc2)CC1,inconclusive: 37.3%,
Cc1cc(Cl)ccc1OC(C)C(=O)N1CCCN(C(=O)C(C)Oc2ccc(Cl)cc2C)CC1 (centres undefined),,active: 18.4 µM
COc1ccc(CCNC(=O)Nc2nc(CN)cs2)cc1OC,inactive: -0.331%,
COc1ccccc1C(CNC(=O)c1ccc(-c2ccccc2Cl)o1)N1CCCC1 (centres undefined),,"inconclusive [cytotoxic, single point]"
Cn1nc(SCC(=O)O)sc1=S,inconclusive: 31.2%,

SMILES,"activity, negative = less viability",Potency
COC(=O)C(C(=O)OC)C(CC(=O)c1ccc(Br)cc1)c1ccccc1 (centres undefined),inactive: 0.301%,
COc1ccccc1CNC(=O)CN1C(=O)NC2(CCCc3sccc32)C1=O (centres undefined),inactive: -10.6%,
COC(=O)C1=C(C)N(Cc2ccccc2)C(=NCC(C)C)N[C@H]1c1cccc(F)c1,,"inconclusive [cytotoxic, single point]"
O=C(NCC1CC1(Cl)Cl)Nc1ccc(Cl)c(Cl)c1 (centres undefined),,active: 18.4 µM
N/C(Cc1ccccc1)=N\OC(=O)c1cccc2ccccc12,,"inconclusive [cytotoxic, single point]"
Cc1ccc(NC(=S)N=Nc2c(O)[nH]c3ccccc23)cc1,,"inconclusive [cytotoxic, partial curve]"
COc1ccccc1C(=O)N1CCN(C(=O)Cc2ccccc2)CC1,,"inconclusive [rising, partial curve]"
CC(C)(C)c1ccc(NC(=O)N2CCN(c3ccc([N+](=O)[O-])cn3)CC2)cc1,,"inconclusive [cytotoxic, single point]"
COc1ccc(N2C(=O)C(Cl)=C(N3CCOCC3)C2=O)cc1,,"inconclusive [cytotoxic, single point]"
CC(C)C(=O)Nc1ccc(C(=O)NNC(=O)C(c2ccccc2)c2ccccc2)cc1,,"inconclusive [cytotoxic, single point]"
Cc1cc(-c2nnc3n2N=C(c2ccc(-c4ccccc4)cc2)CS3)n[nH]1,,active: 23.1 µM
CCn1cc(CN2CCC(C(=O)Nc3cccc(-c4cccc(Cl)c4)c3)CC2)cn1,,active: 14.6 µM
CN(C(=O)c1cccs1)c1ccc(OCC(=O)N2CCC(C(N)=O)CC2)cc1,,"inconclusive [cytotoxic, single point]"
C/C(=N\O)C(C)Oc1ccc(Cl)cc1 (centres undefined),inactive: 22.1%,
C=CCCC(=O)Nc1nc(C)c(-c2csc(Nc3ccc(Cl)cc3)n2)s1,,"inconclusive [cytotoxic, single point]"
Cc1ccc(CNC(=O)CSc2c3c(nc4ccc(Cl)cc24)CCCC3)o1,,"inconclusive [cytotoxic, single point]"
O=c1[nH]c2ccccc2n1CCCSc1cnc2ccccc2n1,inconclusive: -4.03%,
CNC(=S)/N=C/NOCc1ccc(Cl)cc1Cl,,"inconclusive [cytotoxic, single point]"
c1ccc2c(Nc3nc(-c4ccncc4)nc4ccccc34)cccc2c1,inconclusive: -33.8% [cytotoxic],
Cc1cccc(C(=O)NC2CCN(C(=O)Nc3ccc(F)cc3)CC2)c1,inactive: 2.25%,
NS(=O)(=O)c1ccc(NC(=O)C(=O)NCCC(=O)O)cc1,inactive: 15.3%,
COc1ccc(-c2noc(CCC(=O)Nc3cccnc3)n2)cc1,inactive: 3.85%,
CC1CCCN(C(=O)CN(C)S(=O)(=O)c2cccc3nsnc23)C1 (centres undefined),inactive: 19.4%,
FC(F)(F)c1cnc(NNC(=S)Nc2ccc(Cl)cc2)c(Cl)c1,,"inconclusive [cytotoxic, full curve]"
